Measured values as given in ChEMBL document CHEMBL4888484, “Replenishing the malaria drug discovery pipeline: Screening and hit evaluation of the MMV Hit Generation Library 1 (HGL1) against asexual blood stage Plasmodium falciparum ,using a nano luciferase reporter read-out” (2022).
Among all 150,000 compounds or so, about 540 (0.36%) showed an effect of 50% or more. Some of the results follow.

The compounds below were run on Plasmodium falciparum (assay: Primary screen in NF54 nanoGlo assay, in single point, at 2uM, 72h; a lower Z score goes with more inhibition). Conditions: timepoint 72 hour.
Assay type: functional, Erythrocyte
With `C=CCCC(=O)NCCCn1ccc2cccnc21` the “% Inhibition” value was -13% and the Z score was 1.94.
For `O=C(Cn1cncn1)N[C@@H](Cc1ccc(Cl)cc1)c1ccccc1`, the “% Inhibition” value was -10% and the Z score was 0.89.
`CCO[C@H]1OCCn2c1c(Br)c(=O)n(C)c2=O` was tested, and the “% Inhibition” value was 32% and the Z score was -4.14.
With `O=C(c1ccccc1-n1cnnc1)N(Cc1ccccn1)C1CCCCC1` the “% Inhibition” value was 0% and the Z score was 0.02.
In the case of `Cn1cccc(C(=O)N2C3CCC2CC(F)C3)c1=O` (centres undefined), the “% Inhibition” value is reported as -6% and the Z score is reported as 0.94.
In the case of `CC(C)(C)C(=O)NCCn1ccn2nccc12`, the “% Inhibition” value is reported as -12% and the Z score is reported as 1.55.
With `COc1ccc(C(=O)N2CC[C@H](n3cnc4ccccc43)C2)c(C)c1` the “% Inhibition” value was -16% and the Z score was 2.16.
For `O=C1N(c2cccc(F)c2)c2ncccc2S(=O)(=O)N1Cc1cccc(F)c1`, the “% Inhibition” value was -21% and the Z score was 2.08.
`CCN(CCOc1cccc(Cl)c1)C(=O)c1cc(C)nn1C` was tested, and the “% Inhibition” value was -1% and the Z score was 0.09.
In the case of `CC(=O)Nc1ccc(S(=O)(=O)Nc2noc3ccccc23)cc1`, the “% Inhibition” value is reported as -16% and the Z score is reported as 1.83.
For `CCOc1ccc(NC(=O)CC2CCN(S(=O)(=O)c3ccc4c(c3)CCN4C(C)=O)CC2)cc1`, the “% Inhibition” value was -11% and the Z score was 1.04.
For `COc1ccc(Cn2cc([C@H](CC(N)=O)c3cc(C)ccc3F)c3ccccc32)cc1`, the “% Inhibition” value was -7% and the Z score was 0.71.
In the case of `Cn1nc(CN(Cc2ccco2)C(=O)C(C)(C)Oc2ccc(Cl)cc2)cc1C1CC1`, the “% Inhibition” value is reported as -14% and the Z score is reported as 2.73.
`OC[C@@H](O)CN(CCN1CCOCC1)CCC(F)(F)F` was tested, and the “% Inhibition” value was -7% and the Z score was 0.85.
In the case of `Cc1ccc(Cl)cc1NC(=O)[C@H](C)OC(=O)CCC(=O)Nc1nnc(C(C)C)s1`, the “% Inhibition” value is reported as -2% and the Z score is reported as 0.28.
In the case of `C[C@H]1COc2ccc(C(=O)NCc3ncccc3F)cc21`, the “% Inhibition” value is reported as 1% and the Z score is reported as -0.18.
In the case of `CC(C)[C@@H](CO)NC(=O)c1sncc1Br`, the “% Inhibition” value is reported as 3% and the Z score is reported as -0.54.
In the case of `O=C(c1cccc(C(=O)N2CCN(C(c3ccccc3)c3ccccc3)CC2)c1)N1CCN(C(c2ccccc2)c2ccccc2)CC1`, the “% Inhibition” value is reported as 54% and the Z score is reported as -11.5.
For `c1ccn2cc(CN3CCC(n4ccnc4)CC3)nc2c1`, the “% Inhibition” value was -2% and the Z score was 0.24.
`COC(=O)c1cnc2c(c1)n(Cc1cn(C)nc1C)c(=O)n2C1CCCCC1` was tested, and the “% Inhibition” value was -3% and the Z score was 0.44.
With `O=C(c1nc2ccccn2c1CN1CCC([C@H](O)c2cccs2)CC1)N1CCCC1` the “% Inhibition” value was -8% and the Z score was 1.17.
With `Cc1csc(N2CCC(NC(C)CC(O)c3ccccc3)CC2)n1` (centres undefined) the “% Inhibition” value was -6% and the Z score was 0.81.
With `CCc1csc(CNC(=O)c2ccc(N3Cc4cnn(CCO)c4C3)nc2)n1` the “% Inhibition” value was -10% and the Z score was 1.55.
With `C#CCOC[C@@H](O)CN(CCOC)Cc1cc(C)ccc1C` the “% Inhibition” value was -12% and the Z score was 1.85.
In the case of `COc1cc(OC)cc(C2=NC3(CCCC3)NC2=O)c1`, the “% Inhibition” value is reported as 0% and the Z score is reported as -0.05.
In the case of `O=C(Cn1cnnn1)Nc1ccc(N2CCOCC2)cc1`, the “% Inhibition” value is reported as -13% and the Z score is reported as 1.79.
With `Cc1nc(OCC(=O)NCc2cccnc2)c2c(-c3cccc(F)c3)noc2n1` the “% Inhibition” value was 6% and the Z score was -0.89.
In the case of `COC(=O)c1ccccc1N(C)C(=O)COC(=O)[C@@](C)(O)CN1Cc2ccccc2C1=O`, the “% Inhibition” value is reported as -11% and the Z score is reported as 1.54.
With `c1ccc(-c2noc(CCN3CCOC[C@H]3c3nc[nH]n3)n2)cc1` the “% Inhibition” value was -3% and the Z score was 0.58.
With `CC(C)[C@@H]1CN(C(=O)c2cnccn2)CCCN1CC1CC1` the “% Inhibition” value was 0% and the Z score was 0.04.
`CC1CC(CNC(=O)c2cc(-c3cccnc3)nn2C)C1` (centres undefined) was tested, and the “% Inhibition” value was -5% and the Z score was 0.95.
In the case of `Cc1ccc2cccc(-n3ccnc3-c3cn(C4CCNCC4)nn3)c2n1`, the “% Inhibition” value is reported as -8% and the Z score is reported as 1.07.
With `C[C@]1(c2ccccc2)CCCN(C(=O)c2cn(CCN3CCNCC3)nn2)C1` the “% Inhibition” value was 6% and the Z score was -1.18.
For `Cc1nc2n(n1)CCCC2NC(C)C1CCCN1C(=O)OC(C)(C)C` (centres undefined), the “% Inhibition” value was -4% and the Z score was 0.46.
For `CCNC(=O)[C@H](C)NS(=O)(=O)C1CN(C(=O)OC(C)(C)C)C1`, the “% Inhibition” value was 3% and the Z score was -0.39.
In the case of `COc1ccc([C@@]2(C)NC(=O)N(CC(=O)N3CC(=O)Nc4ccccc43)C2=O)cc1OC`, the “% Inhibition” value is reported as 43% and the Z score is reported as -5.54.
With `CCN1CC(C)C(NS(=O)(=O)c2ccc3c(c2)OCCO3)C1` (centres undefined) the “% Inhibition” value was -8% and the Z score was 1.07.
In the case of `O=C1O[C@H](C(=O)Nc2nc3ccc(F)cc3s2)Cc2ccccc21`, the “% Inhibition” value is reported as 4% and the Z score is reported as -0.45.
With `O=C1C2C3CCC(C3)C2C(=O)N1c1ccc(Oc2ccc(Cl)cc2Cl)cc1` (centres undefined) the “% Inhibition” value was -8% and the Z score was 0.99.
`CC(C)N1C[C@@H](C(=O)NCc2cccc(-c3ccccc3)c2)CCC1=O` was tested, and the “% Inhibition” value was -2% and the Z score was 0.43.
For `CCc1noc(C)c1C(=O)N1CCOC[C@H]1c1ncn(CC(F)(F)F)n1`, the “% Inhibition” value was 3% and the Z score was -0.53.
`O=S(=O)(Cc1ccccc1)N[C@H]1CO[C@H]2[C@@H]1OC[C@@H]2Nc1nccc(-c2ccco2)n1` was tested, and the “% Inhibition” value was -4% and the Z score was 0.73.
With `O=C1[C@@H]2C[C@H](O)CCN2C(=O)CN1Cc1ccccc1C(F)(F)F` the “% Inhibition” value was -14% and the Z score was 1.43.
With `CCN1CCC[C@@H]1Cn1cc(CCc2ccccc2)nn1` the “% Inhibition” value was 12% and the Z score was -1.6.
For `CC(C)(C)n1ncnc1CN1CCC[C@H](CN2CCOCC2)C1`, the “% Inhibition” value was -8% and the Z score was 1.22.
For `NC(=O)c1ccc(O[C@H]2COCC[C@@H]2NC(=O)c2c(O)cccc2F)cc1`, the “% Inhibition” value was -2% and the Z score was 0.28.
With `CC(C)n1cc(NC(=O)N2CCC3CCCCC32)cn1` (centres undefined) the “% Inhibition” value was -6% and the Z score was 0.82.
For `O=C(O)c1cc2nc(-c3ccccc3)ccc2[nH]1`, the “% Inhibition” value was 16% and the Z score was -1.83.
For `O=C(Nc1cccc(C(F)(F)F)c1)N1CCc2c(c3ccccc3n2CC2CC2)C1`, the “% Inhibition” value was -1% and the Z score was 0.17.
`O=C(c1cccc(C2CC2)c1)N1CCN(c2cnccn2)CC1` was tested, and the “% Inhibition” value was -6% and the Z score was 0.68.
`CS(=O)(=O)N1CCC(C(=O)N2CCOc3ccc(F)cc3C2)CC1` was tested, and the “% Inhibition” value was -10% and the Z score was 1.21.
In the case of `CC(C)C(=O)Nc1ccc(-c2cc(-c3ccc(NC(=O)C(C)C)cc3)nc(-c3ccncc3)n2)cc1`, the “% Inhibition” value is reported as 38% and the Z score is reported as -10.15.
